Experimental data taken from PubChem BioAssay AID1768 (National Center for Advancing Translational Sciences (NCATS), 2009).
In all, about 270,000 compounds went through this assay and about 620 (0.23%) were called active. Inconclusive means that the source gave no clear call. Such entries were picked first, then a sample of the others. Calls follow the shape of the dose curve; as a rule, active = well fitted inhibition curve with a large enough effect in the polarisation, with a control signal flat (not every such curve was filed as active); inconclusive = small, poorly fitted or top-dose-only effect, or effect the other way, or a change in a side signal; inactive = no such curve, though single readings can be large or run the other way; the % refers to the polarisation. Potencies beside an inconclusive call are fits to weak or partial responses and may not hold up. “Side channel” marks fits to a control or component signal instead of the main read-out.

target: Menin (Homo sapiens) (UniProt O00255); experiment: qHTS Assay for Inhibitors Targeting the Menin-MLL Interaction in MLL Related Leukemias: Competition With Texas Red Labeled MLL-derived Mutant Peptide; details: fluorescence polarization; FP activity change, negative = inhibition: at 61.6 µM (top of the series); as to FP activity change, negative = inhibition: % of control where 0% means no effect
UniProt O00255, sequence (O00255 whole entry, looked up): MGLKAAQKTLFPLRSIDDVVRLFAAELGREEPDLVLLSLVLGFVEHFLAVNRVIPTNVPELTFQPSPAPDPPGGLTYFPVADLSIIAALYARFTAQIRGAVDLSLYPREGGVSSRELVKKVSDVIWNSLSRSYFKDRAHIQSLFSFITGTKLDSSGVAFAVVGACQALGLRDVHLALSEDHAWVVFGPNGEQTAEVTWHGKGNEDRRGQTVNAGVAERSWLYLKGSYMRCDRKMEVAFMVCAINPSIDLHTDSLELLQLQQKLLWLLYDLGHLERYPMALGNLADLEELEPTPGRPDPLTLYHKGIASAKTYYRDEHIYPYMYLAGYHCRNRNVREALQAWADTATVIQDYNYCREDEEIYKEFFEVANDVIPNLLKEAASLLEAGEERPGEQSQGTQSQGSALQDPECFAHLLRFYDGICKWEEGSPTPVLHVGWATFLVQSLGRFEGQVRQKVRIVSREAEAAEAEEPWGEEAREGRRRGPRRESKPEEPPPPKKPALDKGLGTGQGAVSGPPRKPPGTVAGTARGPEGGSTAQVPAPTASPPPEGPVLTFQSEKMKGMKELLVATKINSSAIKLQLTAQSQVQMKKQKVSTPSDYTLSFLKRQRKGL
Potency is read from the fitted curve at half-maximal effect; tags tell the direction and shape of the fitted curve or compound fluorescence and quenching.

Potency, inconclusive:
CCOC(=O)CC(=O)CSc1nc2c(sc(=S)n2-c2ccc(C)c(C)c2)c(=O)[nH]1 8.91 µM [quencher, side channel, partial curve], O=C(CSc1nc2ccc(Cl)cc2[nH]1)c1c[nH]c2ccccc12 39.8 µM [inhibitor, single point], COc1cc(/C=N/Nc2ccc(Cl)c(C(=O)O)c2)ccc1OC(=O)c1ccco1 22.4 µM [quencher, side channel, partial curve], C(#CCN1CCCC1)CC(c1ccccc1)c1ccccc1 3.55 µM [inhibitor, full curve, poor fit], CCN(CC)CC(O)CN(c1ccccc1)S(=O)(=O)c1ccc2ccccc2c1 (centres undefined) 28.2 µM [fluorescent, side channel, partial curve], COc1ccc(/C=N/NC(=O)c2[nH]c3ccc(Cl)cc3c2-c2ccccc2)c(C(=O)O)c1OC 22.4 µM [quencher, side channel, single point], Cn1c(N)c(C(=O)COC(=O)c2cc(C3CC3)nc3ccccc23)c(=O)n(Cc2ccccc2)c1=O 31.6 µM [quencher, side channel, single point], CC(=O)c1ccc2c(c1)C1C=CCC1C(c1ccc(S(=O)(=O)N3CCOCC3)cc1)N2 (centres undefined) 25.1 µM [quencher, side channel, partial curve], O=S(=O)(c1ccc(-c2ccccc2)cc1)N1CCOCC1 39.8 µM [fluorescent, side channel, single point], CC(C)OP(=O)(OC(C)C)C1(O)C(=O)Nc2ccc(Br)cc21 (centres undefined) 25.1 µM [inhibitor, partial curve, poor fit], CC(C)(C)CC(C)(C)c1ccc(O)c(Cc2ccc(Cl)cc2Cl)c1 12.6 µM [quencher, side channel, partial curve], O=C(CNc1cccc2ccccc12)N/N=C/C(Br)=C/c1ccccc1 7.94 µM [quencher, side channel, partial curve], CCN(CC)CCN(C(=O)c1ccc2c(c1)CCCC2)c1nc2cc(OC)c(OC)cc2s1 6.31 µM [fluorescent, side channel, partial curve], CCn1cc(C2=NOC(C(=O)Nc3cccc(C(C)=O)c3)C2)c(C)n1 (centres undefined) 39.8 µM [inhibitor, single point], CC(=O)Nc1ccc(NC(=O)C2CCCN(c3nnc(-n4cccc4)s3)C2)cc1 (centres undefined) 17.8 µM [inhibitor, partial curve], Cc1cccc(NC(=O)Cn2cc(C(=O)C3CC3)c3ccccc32)c1 39.8 µM [fluorescent, side channel, single point], Cc1[nH]n(-c2ccccc2)c(=O)c1Sc1ccc(Cl)cc1 31.6 µM [quencher, side channel, single point], COc1cc(/C=N/N(CCO)C2=NS(=O)(=O)c3ccccc32)cc(OC)c1OC 35.5 µM [fluorescent, side channel, single point], OCC1(CC2CCCCO2)CCN(C/C=C/c2ccccc2)CC1 (centres undefined) 10 µM [quencher, side channel, partial curve], CCN(CC)c1ccc(/C=C/c2ccc3ccc(OC)cc3[n+]2CC)cc1 1.78 µM [fluorescent, side channel, full curve], O=C(N/N=C/c1ccc(O)c(O)c1O)/C(=C/c1ccc([N+](=O)[O-])cc1)NC(=O)c1ccccc1 12.6 µM [quencher, side channel, partial curve], COc1ccc(OC)c(C2CC(=O)N3CN(c4cccc(Cl)c4C)CSC3=C2C#N)c1 (centres undefined) 39.8 µM [quencher, side channel, partial curve], CCOC(=O)/C=C/C(=O)Nc1cccc([N+](=O)[O-])c1 15.8 µM [quencher, side channel, single point], CCC(=O)c1ccc(OCC(O)CNCCc2ccc(Cl)cc2)cc1 (centres undefined) 11.2 µM [inhibitor, partial curve], CNc1ccc(Br)cc(C(=O)/C=C/c2ccc(OC)cc2OC)c1=O 25.1 µM [quencher, side channel, single point], O=[N+]([O-])c1cc(S(=O)(=O)N2CCCC2)ccc1N/N=C/c1cccs1 5.62 µM [quencher, side channel, full curve], O=C(N/N=C/c1ccc(N2CCOCC2)cc1)c1ccccc1NS(=O)(=O)c1cccs1 31.6 µM [quencher, side channel, partial curve], COc1ccc(OC)c(NC(=O)CSc2nnc(-c3ccco3)n2-c2ccc(C(=O)O)cc2)c1 35.5 µM [quencher, side channel, partial curve], N#Cc1c(N)sc(=S)c2c1CCCCC2 39.8 µM [inhibitor, single point], Cc1sc2nc(SCC(=O)NCc3ccco3)n(-c3ccccc3)c(=O)c2c1C 35.5 µM [fluorescent, side channel, single point], COC(=O)c1ccc(C2c3[nH]c4ccccc4c3C[C@H]3C(=O)N(C4CCN(Cc5ccccc5)CC4)CC(=O)N23)cc1 (some centres undefined) 20 µM [fluorescent, side channel, partial curve, poor fit], CCOC(=O)N1CCN(S(=O)(=O)c2ccc(C(=O)NNc3nc4cc(C)cc(C)c4s3)cc2)CC1 17.8 µM [quencher, side channel, partial curve], COc1ccc(NC(=S)Nc2cc(-c3ccccc3)[nH]n2)cc1Cl 12.6 µM [quencher, side channel, partial curve], N#Cc1c(NC(=O)Cn2nc(C(F)(F)F)c3c2CCCC3)sc2c1CCC2 3.55 µM [inhibitor, partial curve], CCOc1ccc2nc3cc(N)ccc3c(N)c2c1 31.6 µM [quencher, side channel, partial curve], Cc1c(C(=O)N2CCN(Cc3ccc4c(c3)OCO4)CC2)sc2ncnc(N3CCN(c4ccccc4)CC3)c12 1.58 µM [inhibitor, full curve, poor fit], CCc1cc2c(C)ccc(C)c2nc1SCC(=O)Nc1c[nH]c(=O)[nH]c1=O 17.8 µM [fluorescent, side channel, partial curve], C=C(C)CSc1nc(C)c(Cc2ccccc2)c(=O)[nH]1 39.8 µM [inhibitor, single point], O=C(N[C@@H](Cc1ccccc1)C(=O)O)c1ccc(C(F)(F)F)cc1 17.8 µM [quencher, side channel, partial curve], O=C(CSc1nnc2ccc(-c3ccncc3)nn12)c1cccs1 35.5 µM [quencher, side channel, single point], O=C(Nc1ccnn1C1CCN(Cc2cccc(OCCO)c2)CC1)C1CCCC1 39.8 µM [inhibitor, single point], S=c1nc(COc2ccccc2)[nH]c2ccccc12 14.1 µM [quencher, side channel, partial curve], Nc1ccc(O)c(-c2nc3ccccc3s2)c1 11.2 µM [quencher, side channel, partial curve], CN(NS(=O)(=O)c1ccc(Br)cc1)c1nc(C(F)(F)F)nc2ccccc12 17.8 µM [quencher, side channel, partial curve], CCN(CC)C(=O)c1c(-c2ccccc2)oc2ccc(OC)cc12 31.6 µM [fluorescent, side channel, partial curve], O=C(Nc1ccccc1)Nc1cccc(Cl)c1 10 µM [quencher, side channel, partial curve], COc1ccc(C)cc1S(=O)(=O)N(C)CC(=O)N1CCCCCC1 22.4 µM [fluorescent, side channel, single point], Cc1nc(N2CCC(C)CC2)c2c(C)c(C(=O)Nc3cc(F)ccc3C)sc2n1 1.78 µM [fluorescent, side channel, full curve], COc1ccccc1OCCCOc1ccc(/C=C2\SC(=O)NC2=O)cc1OC 14.1 µM [quencher, side channel, partial curve], CC(/C=C/c1ccco1)=N\NC(=O)CNc1ccc2ccccc2c1 25.1 µM [quencher, side channel, partial curve]

FP activity change, negative = inhibition, inactive:
c1csc(-c2ncc3ccccn23)c1 -9.38%, O=C(Cc1cccs1)NC1C(=O)N2C(C(=O)[O-])=C(C[n+]3ccccc3)CSC12 (centres undefined) 36.9%, CC1=C(C(N)=O)C(c2cccnc2)n2nc(-c3cccc(C)c3)nc2N1 (centres undefined) -17.1%, N#Cc1c(-c2cccs2)cc(-c2cccnc2)nc1N -17.9%
